Reference: the supplement of paper PMC3334620
The full ranking holds about 33,000 sequences; the median of “E-score (-0.5 to 0.5)” is about -0.016, and the highest 2% start at about 0.32. The list shows a part of the results.

Biological target: T1, Stp1 (UniProt B3LFK1)
T1 sequence: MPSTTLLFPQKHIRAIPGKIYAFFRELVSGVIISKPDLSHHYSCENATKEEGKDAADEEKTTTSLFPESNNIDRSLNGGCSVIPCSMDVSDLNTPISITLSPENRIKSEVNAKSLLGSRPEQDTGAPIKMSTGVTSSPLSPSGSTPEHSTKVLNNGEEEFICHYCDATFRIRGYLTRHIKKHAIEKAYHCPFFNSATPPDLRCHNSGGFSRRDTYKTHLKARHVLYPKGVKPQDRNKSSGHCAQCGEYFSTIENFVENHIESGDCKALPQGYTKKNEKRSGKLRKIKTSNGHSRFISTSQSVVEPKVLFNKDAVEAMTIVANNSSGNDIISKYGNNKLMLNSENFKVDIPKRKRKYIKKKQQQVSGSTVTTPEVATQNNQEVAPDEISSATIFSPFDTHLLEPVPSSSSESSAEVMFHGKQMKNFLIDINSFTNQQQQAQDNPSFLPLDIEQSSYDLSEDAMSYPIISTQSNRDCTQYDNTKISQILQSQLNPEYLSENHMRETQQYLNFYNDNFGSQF
Test: PBM E-score (8-mer binding enrichment) (E-score (-0.5 to 0.5)); higher = stronger / more preferred TF binding; most listed sequences are background and not binding sites
Details: protein concentration: 200 nM; construct: GST-full length
Outline: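 Yeast transcription factors, full-length or as DNA-binding domains, were expressed with a GST tag using PURExpress in vitro transcription/translation. At about 100-200 nM they were applied to universal all-10-mer Agilent arrays, double-stranded by primer extension on fresh or once-stripped slides. Fluorescent anti-GST detected bound protein, and masliner normalised the scans. E-scores for ungapped eight-base words, pooled with reverse complements, came from the Universal PBM Analysis Suite.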

Sequence	PBM E-score
AGACGCGA	-0.0385
ACATCCCG	0.07
AAACACAA	0.142
ACACGCCG	0.351
GTGCCCGA	0.0185
AAGTACTG	-0.0176
CGATTTGC	-0.00024
ATACCTGA	0.105
CTCATAAA	-0.0607
CCTAGACA	-0.137
ATCTATGA	0.0128
AGGCCCCG	-0.142
ATCTAGAG	-0.105
AGTGCAAT	-0.119
CCTCGCGC	0.219
CGAAACTA	0.0955
GGTCATGA	-0.068
CAGGTGAC	-0.18
CGGTCCTC	-0.154
GCGATCGC	0.077
GGAGGTAA	-0.0408
CTCGTGTA	0.0486
ATGTGTAG	0.134
ACCTCATA	-0.0518
AGAGCTCA	-0.247

Sequence	PBM E-score
CCCCCCAG	-0.5
CGCTGTGA	-0.0905
AGCCGGTA	-0.0607
ACAATGAA	0.135
GGCTTGAC	-0.126
CCGGCGCA	0.121
CAAGACAC	0.117
CGTACTCA	0.146
CGCGACGC	0.0474
TCAAGCGA	0.0232
ATTGGTCG	-0.0151
GGGACAGA	-0.233
GATTACAA	0.172
AAATCCAC	0.00175
GTTGCACA	0.0546
CCAACTGA	-0.167
AAACATGT	0.176
CGTCATAA	-0.125
CCCCAAGG	-0.202
CTGCTTCA	-0.155
CAAAATTA	0.139
CCCGTCGC	0.0407
AAACACCC	-0.0828
ACGGAATA	0.0278
ACGCCGGA	0.00769

Sequence	PBM E-score
GTACGATA	0.051
AACGTTTA	-0.104
GCCACTCC	0.0809
AGCCCGTA	-0.121
ACGAAGAA	0.192
ATTCACAG	-0.062
ATGAGAGG	-0.118
AGAGCTTG	-0.106
GATAAAAA	0.121
CCCGTCGA	-0.0127
AAAGTGTC	-0.162
ACTATGGA	-0.213
CCAAGGAA	-0.198
AATTTTGA	0.3
GATCAGTA	0.085
AGACTTTG	-0.0142
AGGGGGGG	-0.287
ACTGCTAG	-0.0979
CGAATGAA	-0.0234
GGACAGCA	0.0785
GAGACCCC	-0.357
ATTTCCTG	0.0896
CTTTTGCC	0.286
CCTGGTCG	-0.218
CCAAGTAG	-0.199

Sequence	PBM E-score
CGAGATTC	-0.105
CATGATAC	0.102
CGTCCCTA	0.0772
CTGGCTGC	-0.146
AGGCAAGC	-0.0628
ATATACTG	0.148
ATTTTTTC	0.229
GCTAGATA	0.0597
GACACGCA	0.0631
ACTAAAAG	0.123
AAGTTACG	-0.0442
AGATCGCG	0.113
GCAGAAAC	0.234
GACAGTAC	-0.144
GAGAGCAC	-0.133
CCCCTAGG	-0.323
CGAGAACC	-0.0185
CTAAGAGA	-0.0601
AAGCTGAG	-0.0791
TATAGTCA	0.0384
GTATGGTA	-0.09
CCAGACTC	-0.192
CGCAATGC	0.114
ACCACAGT	-0.0128
ATGTTATG	0.0898

Sequence	PBM E-score
TCAAAGGA	0.0588
AAGACGGC	0.318
GAGTGCAA	-0.0337
GAATCTAC	0.0697
CTTAGTTC	0.0874
ACCGTTCT	-0.0608
GCAGGTCC	0.00516
CCAGGACG	-0.209
ACATGACG	-0.00655
CCACGAAC	0.121
ATTGTAAC	0.073
CAGGACCC	-0.199
CGCAGTGA	0.182
GTAGATAC	0.0705
CACCACTA	0.0711
CCGGGCCG	0.138
TATCCAGA	0.151
ACCGTCTG	-0.138
TCAACTGA	-0.0399
AAATGGTG	0.119
AGGATAGC	0.0903
ATAGCGTG	0.00662
ATTGATTC	0.265
ACACATGA	0.00469
AGGCTCTG	0.0387

Sequence	PBM E-score
TAGAAGGA	-0.185
CACCTTAC	-0.0776
AACAGAAC	0.0676
CATGACGG	0.0485
AGCACCTA	-0.162
CGCCATCA	-0.144
GGGGTGTA	-0.188
CGGGTTAA	0.0609
CGAGATAA	0.127
CATTACAG	-0.00542
AGGCATAG	0.15
CCCCGGCA	-0.217
ATAGGTGC	0.0855
TCGTAGAA	0.0592
ATGGAATG	-0.0629
ATCTTCGC	0.107
AAAAGGGG	-0.318
GGAAATAA	0.195
ATACAGTC	-0.15
AACGCACC	-0.0604
ACTGTATC	-0.0394
ACACCACA	0.108
ACCCTTGC	-0.177
CGTTGAGA	0.0693
AGGCTTTC	0.198

Sequence	PBM E-score
ACAACTTG	-0.0216
ACTATTGG	-0.105
CTATGTCA	0.0763
CCTAATGA	0.103
CCCGAGCG	-0.0524
AAGAACCT	-0.0404
ACGGCAAC	0.455
GATTATGC	-0.0446
GATATAAA	0.0683
ACGCTCTC	-0.0282
TCATATGA	0.193
AGAGTGAC	-0.219
GGTATCTA	0.109
CTAACGTA	0.0911
GTAATTAA	-0.0546
AATGCCAT	0.312
AACCGGTT	0.00128
TCCGCCGA	0.188
AGAATTAA	0.0137
AAGCAGCC	-0.0898
GGAAACGA	0.0539
ACACAGAA	0.0694
AACCGGGT	0.0665
GCAGGTCA	-0.215
CAGGTCAG	-0.247

Sequence	PBM E-score
AATCGTTG	-0.0537
CCGCAACC	-0.0571
AGAGGGAA	-0.24
AAATGAGA	0.082
CACTGAGA	-0.132
ACACATTC	0.0623
AAGTCATG	-0.15
CGGCAGAG	0.0271
AGTAAACT	0.0943
AAATAGGT	0.0165
AGCGCGTA	0.159
GCGGACGA	0.122
ACCTGAAG	-0.118
TGCATACA	0.0878
CGGTACTA	-0.12
GTAGTCTA	-0.0787
CTACTAAG	-0.0136
AATGTTCT	-0.101
AGAGCATG	-0.155
TAAATTGA	0.0532
ATCCCGAA	0.0909
AGACCGGA	-0.00159
ATCCCCTA	-0.387
AATTTCCC	0.0104
CTTGAAAA	0.202

Sequence	PBM E-score
AACCGGTC	-0.156
AGATCCGA	-0.0881
ATTTCCGC	0.0933
CGAGAGCA	-0.0153
CAGGCTAA	-0.00415
CGAAAACA	0.0759
GTTACCTA	-0.0893
CTGCCACA	0.0726
CGCAAATC	0.00574
CGACTGTC	-0.146
CGCCGCAC	0.478
AAGCCTGT	-0.0611
CGCGCCCG	0.172
ACGCTCAA	-0.06
AGCACAAG	0.0159
CTGGCCAG	-0.223
GGATGATA	0.0377
AACTCTAA	-0.00844
CTCTAAAC	-0.0103
